# Measured values taken from PubChem BioAssay AID686978 (National Center for Advancing Translational Sciences (NCATS), 2013).
# Several values for one entry are separate records, joined by “and”; a condition that tells them apart may be missing. Equal entries are not always repeated. Out of some 420,000 compounds screened, about 64,000 (15%) were called active. Inconclusive results, whose numbers are uncertain, are shown with a selection of clear calls. Calls follow the shape of the dose curve; as a rule, active = well fitted inhibition curve with a large enough effect; inconclusive = small, poorly fitted or top-dose-only effect; inactive = flat fitted curve, though single readings scatter. A potency beside an inconclusive call is a rough fit, not a confirmed value.
# Assay: qHTS for Inhibitors of human tyrosyl-DNA phosphodiesterase 1 (TDP1): qHTS in cells in absence of CPT; also: nearly all actives have a fitted effect of over 55% in size
# Settings: DT40 Tdp1-/- hTDP1 cells, no CPT, ATP luminescence, 48 h; activity change, negative = growth inhibition: at 46.2 µM (top of the series)
# Method in brief: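 No-CPT arm: Tdp1-/-;hTDP1 DT40 cells (400/well) plus compounds, incubated ≥48 hr at 37 °C. Readout CellTiter-Glo luminescence.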
# % is scaled to controls: 0 for no effect and ±100 for the full control effect; potency is read from the fitted curve at half-maximal effect; tags tell the direction and shape of the fitted curve.
Compound,Potency,"activity change, negative = growth inhibition"
O=C(COc1ccccc1)N(Cc1ccccc1)c1nc(-c2ccccc2)cs1,"inconclusive: 25.9 µM [inhibitor, single point]",
COc1ccc(CN2CCN(c3ccccc3OC)CC2)c(OC)c1,"inconclusive: 29.1 µM [inhibitor, single point]",
CCOc1ccc(-c2cc(C(=O)N3CCN(c4ccc(C)cc4)C(C)C3)c3ccccc3n2)cc1 (configuration not stated),active: 23.1 µM,
Cc1cccc(N2CCN(c3ncnc4c3c(-c3ccccc3)cn4-c3ccccc3)CC2C)c1 (configuration not stated),"inconclusive: 10.3 µM [inhibitor, partial curve]",
O=C(Cc1ccccc1)NCc1n[nH]c(=S)n1-c1ccc(Br)cc1,"inconclusive: 20.6 µM [inhibitor, single point]",
COc1ccccc1N(CC(=O)NCc1ccc2c(c1)OCO2)C(=O)CCC(=O)Nc1nccs1,inactive,
COc1ccc(-c2csc(C(C)(O)c3cccc(OC)c3)n2)cc1 (configuration not stated),"inconclusive: 16.4 µM [inhibitor, single point]",
CCCCC(=O)N(C)c1c(C)nc2ccc(C(=O)N3CCCCC3)cn12,inactive,
CCOC(=O)CN1CC23C=CC(O2)C(C(=O)NCc2ccccc2OC)C3C1=O (configuration not stated),inactive,
CC(C)(C)c1ccc(C(=O)Nc2ccc(O)c3c(=O)cc(-c4ccccc4Cl)oc23)cc1,"inconclusive: 7.31 µM [inhibitor, partial curve]",
COc1ccc(CCNC(=S)Nc2ccc(OC)cc2)cc1,"inconclusive: 29.1 µM [inhibitor, single point]",
CCCCn1c(=O)[nH]c(=O)c2c1nc(-c1ccc3ccccc3c1)n2CC,"inconclusive: 29.1 µM [inhibitor, single point]",
COc1ccc(Cl)cc1S(=O)(=O)N1CCCC(C(=O)N2CCOCC2)C1 (configuration not stated),inactive,
C=CCn1c(=O)c2c(nc(-c3ccccc3)n2C)n(C)c1=O,inactive,
O=C(Nc1ccc(S(=O)(=O)N2CCCCC2)cc1)c1ccncc1,"inconclusive: 11.2 µM [inhibitor, partial curve]",
COC[C@H]1CCCN1c1ccc2c(c1)O[C@@H](COCc1ccccc1)CN([C@@H](C)c1ccccc1)S2(=O)=O,active: 7.31 µM,
O=C(NCCc1csc2nc(-c3cccc(F)c3)nn12)c1ccc(Br)o1,"inconclusive: 25.9 µM [inhibitor, single point]",
CCNc1ncc2nc(-c3ccc(F)cc3)c(=O)n(C)c2n1,inactive,
CC(C)(C)c1cc(/C=N/O)cc(C(C)(C)C)c1O,,inconclusive: -35.4% [inhibitor]
COc1ccc(N(CC(=O)N2CCN(c3ccc(F)cc3)CC2)S(=O)(=O)c2c(C)n[nH]c2C)cc1,"inconclusive: 29.1 µM [inhibitor, single point] and inconclusive: 18.4 µM [inhibitor, partial curve]",
COc1ccc(-c2noc(-c3ccc(N4CCC(C)CC4)c([N+](=O)[O-])c3)n2)cc1OC,inactive,
Cc1cnc(CNc2ncnc3ccc(-c4ccc(N(C)C)cc4)cc23)cn1,"inconclusive: 29.1 µM [inhibitor, single point]",
CC(C)CC(=O)NCc1ccc2[nH]c3c(c2c1)CCCC3,inactive,
Cc1ccc(CNC(=O)CSc2nc3n[nH]c(C)c3c(=N)n2-c2cccc(C)c2)cc1,active: 9.2 µM,

Compound,Potency,"activity change, negative = growth inhibition"
COc1ccc(CCNC(=O)c2cccc(Br)c2)cc1OC,inactive,
C/C(N=Nc1nc2ccccc2s1)=N\Nc1ccccc1O,active: 2.59 µM,
CC(=O)c1ccc(OCCCCCCCOc2ccc(C(C)=O)cc2)cc1,inactive,
COc1ccc(-c2csc(N(CCCN(C)C)C(=O)c3ccc(C(C)(C)C)cc3)n2)cc1,"inconclusive: 18.4 µM [inhibitor, single point]",
CC(C)(C)c1ccc(C(=O)NCC(=O)OCC(=O)N2CCN(S(=O)(=O)c3ccc(Cl)cc3)CC2)cc1,"inconclusive: 18.4 µM [inhibitor, partial curve]",
NC(=O)c1c(NC(=O)CSc2nnc(-c3ccccc3)n2CC2CCCO2)sc2c1CCC2 (configuration not stated),"inconclusive: 29.1 µM [inhibitor, single point]",
Cc1ccc(C(=O)N2CCCC(CCC(=O)NCc3ccc(F)c(F)c3)C2)cn1 (configuration not stated),inactive,
CN1c2ccccc2N(C)C1c1ccc2c(c1)OCO2,active: 16.4 µM,
COc1ccc(C2=NOC(Cn3nc(-c4ccccc4)cc3C(=O)NCc3cccs3)C2)cc1 (configuration not stated),active: 9.2 µM,
CCC(=O)Nc1sc(Cc2ccc3c(c2)OCO3)c(C)c1C(N)=O,"inconclusive: 18.4 µM [inhibitor, partial curve]",
N=c1c2c(n(Cc3ccc(Cl)cc3)c3c1CCC3)CCC2,active: 2.31 µM,
Nc1nc(Nc2ccccc2F)nc(NCc2ccccc2)c1[N+](=O)[O-],"inconclusive: 29.1 µM [inhibitor, single point]",
CCCCNc1nc2c(c(=O)n(Cc3ccc(Cl)c(Cl)c3)c(=O)n2C)n1C,active: 29.1 µM,
Cc1ccc(N2C(=O)CC(Sc3ncccn3)C2=O)cc1C (configuration not stated),"inconclusive: 29.1 µM [inhibitor, single point]",
CC/C=C1/N=C2C(=O)N(C)C(=O)N=C2N(C)N1,"inconclusive: 2.24 µM [inhibitor, full curve, poor fit]",
Cc1ccc(NC(=O)c2ccc(Cn3cc([N+](=O)[O-])cn3)cc2)c(C)c1,"inconclusive: 8.2 µM [inhibitor, partial curve]",
CC(C)(C)c1ccc(C(=O)NC(Cc2c[nH]c3ccccc23)C(=O)OCC(=O)c2ccc(Cl)cc2)cc1 (configuration not stated),"inconclusive: 18.4 µM [inhibitor, single point]",
CCNC(=O)C1CCCN(C(=O)c2ccc(F)c(Cl)c2)CC1 (configuration not stated),inactive,
COc1cccc(C(=O)Nc2c3c(nn2-c2ccc(Cl)cc2)CS(=O)(=O)C3)c1,"inconclusive: 18.4 µM [inhibitor, partial curve, poor fit]",
OC(C#CCN1CCCC1)(c1ccccc1)c1ccccc1,"inconclusive: 21.1 µM [inhibitor, single point]",
Cc1ccc(CNC(=O)c2cccc(-n3cnc4cccnc43)c2)cc1,"inconclusive: 29.1 µM [inhibitor, single point]",
Cc1ccccc1OCC(=O)OCC(=O)NCc1cccs1,inactive,
CCOc1ccc2nc(NC(=O)CN3CCC(n4nnc5cc(F)ccc54)CC3)sc2c1,"inconclusive: 29.1 µM [inhibitor, single point]",
O=C(CNc1ccc2ccccc2c1)N/N=C/c1ccc(OC(=O)/C=C/c2ccco2)cc1,"inconclusive: 18.4 µM [inhibitor, single point]",

Compound,Potency,"activity change, negative = growth inhibition"
COc1ccc2[nH]c(C(=O)N(C)Cc3ccccc3)c(C)c2c1,"inconclusive: 23.1 µM [inhibitor, single point]",
COc1ccc(OCc2cc(C(=O)N(C)CCC3CCOCC3)no2)c(Cl)c1,"inconclusive: 18.4 µM [inhibitor, partial curve]",
O=C(Nc1ccc(S(=O)(=O)Nc2nccs2)cc1)c1cc(-c2ccccc2)nc2ccccc12,"inconclusive: 23.1 µM [inhibitor, partial curve, poor fit]",
C/C(=N\OC(=O)c1ccc(Cl)cc1)c1nccs1,inactive,
COc1ccc(SC[C@H](Cc2ccccc2)N2CC[C@@H](C(C)(C)C)CCC2=O)cc1,"inconclusive: 35.5 µM [inhibitor, single point] and inconclusive: 29.1 µM [inhibitor, single point]",
Cn1c(=O)c2cc(NC(=O)NCc3ccccc3)ccc2n1Cc1ccc(Cl)cc1,"inconclusive: 29.1 µM [inhibitor, single point]",
NC(=S)N/N=C/c1ccccc1OCCSc1ccc(Cl)cc1,active: 14.6 µM,
Cn1ncc(N=Cc2c(O)ccc3ccccc23)c1C(=O)Nc1cccc(Cl)c1,active: 23.1 µM,
COc1cccc(OC)c1/C(O)=C(\C#N)c1nc2ccccc2[nH]1,active: 13 µM,
COc1ccc(N(CC(=O)NCCC2=CCCCC2)S(=O)(=O)c2ccccc2)cc1,"inconclusive: 20.6 µM [inhibitor, single point]",
COc1ccc(C(=O)COC(=O)CCN2C(=O)C3CC=CCC3C2=O)c(OC)c1 (configuration not stated),inactive,
NS(=O)(=O)c1ccc(CNC(=O)/C=C/c2ccccc2[N+](=O)[O-])cc1,inactive,
CCN1C(=O)CC(c2ccccc2)CC1=O,inactive,
C=CCNc1nc2cc(-c3ccccc3OC)sc2c(=O)n1C,"inconclusive: 29.1 µM [inhibitor, single point]",
CC(=O)c1cccc(NS(=O)(=O)c2ccc(N/C=C/C(=O)c3ccc(F)cc3)cc2)c1,active: 18.4 µM,
O=C(Nc1c(F)cccc1F)c1ccc(-n2cncn2)nc1,inactive,
Cc1ccc(S(=O)(=O)c2nc(S(C)(=O)=O)sc2N(C)C)cc1,inactive,
OC(c1ccc(Cl)cc1)C(CN1CCOCC1)c1ccccc1 (configuration not stated),"inconclusive: 13 µM [inhibitor, partial curve]",
Cc1ccc(NC(=O)C(Cc2ccccc2)n2cccc2)cc1C (configuration not stated),active: 16.4 µM,
CSc1ncc(Cl)c(C(=O)Nc2ccc(C)c(C)c2)n1,inactive,
COC(=O)C[C@@H]1C[C@H]2c3cc(NC(=O)C4CCC4)ccc3O[C@H]2[C@@H](CO)O1,inactive,
O=c1oc2cc(O)ccc2cc1-c1ccc(F)cc1,active: 14.6 µM,
Cc1ccc(-c2nc3ccccn3c2Nc2ccc3c(c2)OCO3)o1,"inconclusive: 18.4 µM [inhibitor, single point]",
COc1ccc(Cl)cc1NC(=S)Nc1ccc(Cl)cn1,inactive,
